The list shows a part of the results.
These sequences were tested on PfSIP2 AP2 domain 1 (GST-tagged) (assay: gcPBM binding intensity (ln(normalized median fluorescence intensity)); higher = stronger DNA binding).
Method in brief: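 Binding intensity is the highest Masliner-normalised natural-log median intensity over replicate spots in either probe orientation. To obtain it, GST-tagged P. falciparum DNA-binding domains made in E. coli were incubated for 1 h on an Agilent 4 × 180k array of primer-extended double-stranded 36-bp intergenic genomic probes plus negative controls. Detection used Alexa488 anti-GST antibody with scanning at 488 nm.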

Sequence	gcPBM binding intensity (ln)
AATGCTTTTCATCAAGTGCAATATGTTAATACAAAC [GTGCAC_site9619]	7.51
TATAAAAGTAGACACACACACATATAAATATAAATA [CACACA_site6567]	7.05
TCTATATCAACCAGTTGTACTGAATTTACTATATTT [XGTACX_site4205]	6.84
AAAAAAAAAAATGGTTGTACTTTTTTTATTTGGTGC [XGTACX_site4498]	7.37
GTAGACTGAAACCACACACACATATATAAATATATT [CACACA_site6433]	7.13
ATAGACTTTTGTTTTGTTTTATTTTATTGTATTGTA [CACACA_negctrl_site618]	6.75
ATATTATATTGGATGTTGCACTTAACAAAAGGATAT [GTGCAC_site9478]	8.76
TGTATGTATAATTGAGTGCACAGAAAAAAAAAAGAA	10.5
AGAAAAAAAAAAAAAAAACACACGGTACATTCAAAG [CACACA_site2]	6.79
TAATTTTCATATTTCTGTACATATATTATAAATATA [XGTACX_site3480]	6.93
TAATATATATATATTACACACACGTATTATTAAATA [CACACA_site432]	7.16
TTTTTTTTTTGATGAGCACACATGTTTTTTCTTAGA [CACACA_site3171]	6.87
AAAAAATATTTATGTTCACACATTTTATATATGATA [CACACA_site4821]	7.02
AAATATTTTTAAAGAAGTACTTTTTAAAAATAATCT [XGTACX_site4897]	6.9
GCGTATACTTGTAACGGTACACAGGAAATTATAGAA [XGTACX_site507]	7.06
TCTTTGTTTTTTTTTTTTAAACAAAATCATCAAAGG [XGTACX_negctrl_site192]	6.9
AAGATACACCTTTTTAGTACTTACATTTTTTTTATT [XGTACX_site1373]	6.99
AATAAATATATATACACACCCATATATATATATATA [CACACA_site2595]	9.64
TAATGTTGTTTCTGAGGTACACAATTTTTTTTATTT [XGTACX_site8035]	6.83
TTAATGAAATATTATACACACAAAAAAATAATTTTA [CACACA_site4231]	6.83
TACACTTTTTTTTGTACACACTAAAAAGATTAACAA [CACACA_site6037]	6.95
TATATATATGGACACACACACACCAAAGCGTAGCGC [CACACA_site4209]	7.41
ACCATACAGAATAATGCATGTTCCTTTTTATGAATA [TGCATGCA_site995]	6.99

Sequence	gcPBM binding intensity (ln)
TATACTTGTAAATGCACACATAAGATGCGACTAATG [CACACA_site2118]	7.37
AAAAAAATAAAGGATATACACACTAATTATATATAT [CACACA_site2812]	7.61
CCAACATAGAGGGGCACACACATATATACCTAAAAA [CACACA_site5088]	7.58
AGATTATAAAATTCTACACACATATATACCTATATA [CACACA_site5848]	6.89
CTGTGTTTTGGTTGTACACACGCTACATTCTATATT [CACACA_site2698]	7.95
AAAATAATTGTTTACACACCCATTTGTAATTTTACC [CACACA_site3614]	6.98
AATTATATGCTTAATACGCACACGGGAAAAAAAAAA [CACACA_site1376]	7.2
TAAATAAAAAAAAATCGTACATATATTTTATATATG [XGTACX_site3293]	6.82
TTTTCAAAAATATACACACACATAAATATCTGTATA [CACACA_site4586]	6.99
TATTTACATTTTAGTAGTACATATATGTATATATAT [XGTACX_site6839]	7.66
TCGTAATAATAGTTGAGTACGCACTAATATGTCAAT [XGTACX_site643]	7.62
AGATAAAATATATATGCACACACATATATATTTCAT [CACACA_site9183]	7.13
TAATTATTTAAAAAGAGTACATTTTTTTTTTTTTTT [XGTACX_site1060]	7.29
ATAATTATTTAATATATATATATTATTTCGAATGTT [GTGCAC_negctrl_site688]	7.03
TTAATAATTAATATATGTACTGATAAATAACATATA [XGTACX_site3966]	6.85
ATTCTATATAAATATACACACATATATAAAATACAT [CACACA_site2293]	7.13
TGTTTGTAATTATGTATGCACTTTTTTGTATGTGTG [GTGCAC_site9668]	8.83
ACATATCTATCGTTTTTAATTGTATATTATTATAAC [TGCATGCA_negctrl_site144]	7
TCTTGTATATGTTAAAGTACACAACAATATATATAT [XGTACX_site6814]	8.9
AGAAAAAAACAACATGCACACGCACCCACAAAAAAA [CACACA_site7908]	10.2
ATATTCTTGTTTAATACACACTGTAGTATTATATAT [CACACA_site4400]	7.17
TAATGAGCGCTTGTAGTGCATTATATTCAAAAATAT	7.92
TCCCACTGTTATATTGAAAAAAAAAAAAAAAAAAAA [TGCATGCA_negctrl_site288]	7.28

Sequence	gcPBM binding intensity (ln)
AAAAAAAAAAAACACACACACACAAATATATAAAAA [CACACA_site1171]	7.16
TTTGAAAAAAATTAATGTACATTTGAAATGACATAT [XGTACX_site3902]	6.76
GTATAAAAGTTATATACACACAACAGAATTACATAT [CACACA_site6212]	7.17
ATACCTTCTTTTATGTTTAATTAATATACTTTTTAT [CACACA_negctrl_site1557]	7.44
AATACATACATACATACACACATATAAATATATTAT [CACACA_site7650]	7.23
TTTGCCCAAAAAGGTACACACCACAATGTACATAAA [CACACA_site4599]	7.14
TCATATATGGGTAGTATACACACTGTATATTTAGGA [CACACA_site2844]	6.89
TTTTATTTAAATACACGTACATAATGTATATATATA [XGTACX_site7160]	8.14
GAACATTTCACACAAAAAAAAAAAAATATATATATA [TGCATGCA_negctrl_site518]	8.85
TCTTTTTAAATATATACACACCGTGTCTACAGATAC [CACACA_site5784]	6.99
ACATGATGTCATAAATGTACGCACACATACATAAAC [XGTACX_site1198]	7.26
TACTAATATAATAAAAGTACTTAAATAAATATATGT [XGTACX_site2220]	7.26
ATGTATATATATATATGTACTAATTAGTAGTTTACG [XGTACX_site6272]	7.32
TGTATGTATAAAAACGCATGTATGTATTTTACAATA [TGCATGCA_site767]	6.7
GATATTTTTTTCGAAAGTACAAAAAAAAATATTTCC [XGTACX_site4389]	7.01
AAAATTAAAAATAACACACACATATATATATTTATA [CACACA_site2776]	6.9
ATATATATACCAAGTAGTACATTCTACAACTAATGT [XGTACX_site8653]	7.43
TACTAAGAATTAATATAACAAAATAAAAAAAAAAAA [XGTACX_negctrl_site346]	6.79
ATACAGATATATAATACACACATAAATGTAACATTT [CACACA_site5864]	7.09
TAGATACATACACGCACACACATATATATATATATA [CACACA_site12]	9.72
CCACATTAAAAAAAAACACACATATATTATAGATAT [CACACA_site6662]	6.93
AATGTACGTTTTATAACACACACACTAATAAAAAAA [CACACA_site9286]	7.2
ATCTTCAAAAATATTAGTACACATGTATCATGAATT [XGTACX_site3872]	7.16

Sequence	gcPBM binding intensity (ln)
TTTATTTGTAACGGTTGTACTTGTATATCATTATGA [XGTACX_site4281]	7.14
TAGTGATATAATTATGTGCACTTAATACAGGTCGAT	10.1
CACTAAAATAGACACACACACACACGGATATAAATA [CACACA_site7873]	7.06
CTTAAATTTAAGTTCACACATATTGGTCATTTATAT [CACACA_site5006]	6.83
GATGTTCATCACTACACACACAAAGAAATATAAATA [CACACA_site7294]	6.9
TACCCAAAGTTACATACACACTAATATTTACACCAT [CACACA_site4709]	7.01
ATATGAAGTTATATAGTGCACATGTACAACCAAATC [GTGCAC_site9974]	10.4
TTCTATATATATATAGACAAACGATAAAATAAAAAA [GTGCAC_negctrl_site142]	7.09
TAATAATAGTGAGAGTGTACTTTAAATAAAATATAT [XGTACX_site2850]	6.85
AGAAAAGAAATTAGTTGTACTCTGATGAATTATCCT [XGTACX_site6284]	6.79
TACAATTTGATATATACACACAAATAAATTATGCTT [CACACA_site6534]	6.93
AAAAGTACAATATATATGTATGTGTATAGAATGGTT [TGCATGCA_negctrl_site76]	7.33
ATAATATTATACTTTGCACACATCTGAAATGACATA [CACACA_site3952]	7.28
TTTGATAAAATTGATATCCTATAATTATATAAATAA [GTGCAC_negctrl_site317]	6.81
AAAAAACAGACATACACACACACACCCATATATATA [CACACA_site3392]	7.34
GATAAAATAAAAGTGGGTACTTAAATATATATATAA [XGTACX_site8457]	6.99
AAAGAATTTAAATATTGTACGCAATATATAAAAAAA [XGTACX_site7616]	6.93
TAATATTATTATTTTACACACTTTTTTCCTTTTATC [CACACA_site2457]	6.84
ATTCTATATTTAAATGCATGCACTTTCTATTTTTTT [TGCATGCA_site435]	9.29
TTTAATTTGTTATACACACACAAAAAAAATTATAAA [CACACA_site3937]	7.16
